± gives the standard deviation of the averaged measurements. This is one part of the list.
tested on: PfAP2-LT AP2 domain (GST-tagged); experiment: gcPBM binding intensity (ln(normalized median fluorescence intensity)); higher = stronger DNA binding
Outline: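 DNA-binding domains from P. falciparum, fused to GST and produced in E. coli, were put on an Agilent 4 × 180k double-stranded probe array for 1 h in 1× PBS holding 1% milk, 0.2 mg/ml BSA, 0.5% salmon testes DNA and 0.03% Triton X-100. Probes were primer-extended, 36 bp long and drawn from intergenic genomic regions, with negative controls included. After Alexa488 anti-GST antibody detection and a 488 nm scan, binding intensity was set as the highest Masliner-normalised natural-log median intensity across replicate spots of either probe orientation.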

Sequence	gcPBM binding intensity (ln)
TTTTTTTTATGGAAACGTACATACATACATTAAAGA [XGTACX_site7401]	8.33 ± 0.38
TTTTTATTTTTTTACAGTACATAAAATAAATAAATA [XGTACX_site6596]	7.93 ± 0.36
TTCTTTAATACTTATTGTACAATATAATAATCACAA [XGTACX_site6364]	8.6 ± 0.52
TACTATATAAGTAAGGCATGCATGCCGATTTTTTTA [TGCATGCA_site100]	8.8 ± 0.39
AAAAAAAAAAAAATATGTACTTATTTTTATGTTAAA [XGTACX_site8802]	8.26 ± 0.44
TACTTAAAATATTTAACAAATAAATAAATAAATAAA [XGTACX_negctrl_site523]	8.25 ± 0.55
TGAAACCGTTACATGTGTACATATGTTACACATAAT [XGTACX_site7250]	8.89 ± 0.32
TTTCTTTTACATATTTGTACATATATAAATTTATAT [XGTACX_site1787]	8.94 ± 0.38
TCACATCTTATATACTGTACATTTCGAATATAAATT [XGTACX_site2508]	8.81 ± 0.35
ATATTTTTATTTTCTTTACACACCACATAATTTTTT [CACACA_site4060]	9.07 ± 0.46
ATTAGATATGTAAACTAAAATTATATTCATGATAAT [TGCATGCA_negctrl_site182]	8.68 ± 0.42
TCTAACAACATGCGCACACACATGAATATTCATATT [CACACA_site1540]	9.49 ± 0.32
CATTATCATGTTTTTTGTACTCATAATAAAAAGCAG [XGTACX_site2056]	8.32 ± 0.41
CAAGGAACCGGACACACACACATAAATGTATTTATA [CACACA_site4574]	9.54 ± 0.52
TATATATAGAAACACACACACACCAAAGCGTAGCGC [CACACA_site62]	9.79 ± 0.22
ATTTACAAAAGGAAAGTGCAAACATGTGATTAAACA [CACACA_negctrl_site714]	8.96 ± 0.45
AAAAATGAATTATTTTGTACATATATATATATATAT [XGTACX_site3410]	9.49 ± 0.19
AATAATTGTTAAAGTTGTACTATACGTATATAAGAA [XGTACX_site1432]	8.81 ± 0.54
GCCAAAAGGATATGCACACACACACCCATATATATA [CACACA_site2198]	9.94 ± 0.42
ATTTTAATTACATATACACACAAAGGTTCATAACAA [CACACA_site9008]	8.81 ± 0.37
TTTTAAAAAAAATATAAAAAAAGAGGAGGGATGGTA [GTGCAC_negctrl_site35]	8.52 ± 0.47
AATTTTATTACTTTTACACACCTATATATTATTCAT [CACACA_site3273]	9.19 ± 0.38
ATTATTTTATTATAGTGTACTTTTTTAATCAAAGGA [XGTACX_site8921]	8.44 ± 0.4

Sequence	gcPBM binding intensity (ln)
TACTCATAATATTGATAATTAAAAAGATAAACTATT [XGTACX_negctrl_site299]	8.38 ± 0.35
TAATTTAAACAAAAAAGTACAAATTTCTTTTTATTA [XGTACX_site5244]	8.12 ± 0.54
TATGTTTTTACGTGTGTGCACTTTGTAGAGATAAGT	9.06 ± 0.38
AACTTATTTAAATTCACACATATATAAAATACTTAT [CACACA_site4394]	8.64 ± 0.41
ATAAAGATATGACACACACACATATTATAGATATAT [CACACA_site7434]	9.71 ± 0.3
ATCAATTTAATTTATTGTACTTGTTTGTTTTTTTAT [XGTACX_site7544]	8.94 ± 0.38
GATAACATAATATGTTGTACATAAAAATTTTTATCA [XGTACX_site1969]	8.66 ± 0.41
ACATATGACTATAATACACACTTGTATTATTAATAT [CACACA_site6951]	8.87 ± 0.38
TTTTTTTTTTTTGATGCACACACCTGAACGAGTTAA [CACACA_site317]	9.16 ± 0.45
TATTTTTATATATGACGTACTCTACAATTATTAATG [XGTACX_site5818]	8.67 ± 0.37
AAAATATGTATGTAAAGTACTAATATACAAATTTTT [XGTACX_site5186]	8.8 ± 0.4
CATATACATCCACATACACACATACACCCATACACA [CACACA_site5038]	9.66 ± 0.28
TGAAAAGTAAAATACACACACATAATATAATTTATA [CACACA_site1989]	9.47 ± 0.41
AAAGGATATAGACACACACACACATATATATATATA [CACACA_site2200]	10.3 ± 0.32
GTTCAAAATATGAACACACACATATAGATTTATATA [CACACA_site7054]	9.08 ± 0.41
ATCATTTTTAAAGGAACACACAAAAAAAATTAGAAT [CACACA_site1370]	8.78 ± 0.52
ATTATTTTTTTTGTTACACACATGACTTATTTTTAT [CACACA_site3228]	9.21 ± 0.44
TAGTCGTTTTTTTAATGTACTCACGCATAATATAAT [XGTACX_site6499]	8.97 ± 0.29
TTAATTATAAGAAAAAGTACTCATTACATTATAGAA [XGTACX_site678]	8.37 ± 0.47
ATATAAATATTCCACACACACACAAAAAAAAAAAAA [CACACA_site7678]	9.73 ± 0.24
CATACATACCTATATACACACATATAAAATAATATA [CACACA_site7290]	9.18 ± 0.4
AGTATACAGATATATACACACATATTTATATTTATA [CACACA_site6394]	9.04 ± 0.35
TCTATATGTTGATTCACACATAAAGAATAAATAAAA [CACACA_site6017]	8.65 ± 0.51

Sequence	gcPBM binding intensity (ln)
TGTTATTATTTGTACACACACATATATATCCTTGTT [CACACA_site3616]	9.71 ± 0.38
GGCAACATTTGAAACACACACACATACAAACAAACA [CACACA_site3307]	9.86 ± 0.47
TATAATATATTATATACACACATTATGAAATCCACA [CACACA_site1330]	8.96 ± 0.35
AACACGCGCAGACACACACACACACCCACATATATA [CACACA_site2205]	10.3 ± 0.27
TATATGAACTTATATACACACCATTTTTGTAAATCT [CACACA_site4547]	8.83 ± 0.4
ATAAATATATTTTATAGTACATAAATATCAAAAAAA [XGTACX_site2334]	8.54 ± 0.54
ATTTTGATGCATGGGTTGCACTAACTTTTGCCCAGA	8.68 ± 0.51
AAACAATACTGATATTGTACATAATAAAAAAAAATA [XGTACX_site3330]	8.84 ± 0.41
TTTTTTTTTTTAAATAGTACACATATATATATATAT [XGTACX_site6983]	8.86 ± 0.26
TATACCTATAGACACACACACATAAATAGATATATA [CACACA_site6748]	9.66 ± 0.33
AAAAAAAAAAAAAAAAGTACAAAAAAAAAAAAAAAA [XGTACX_site4549]	8.3 ± 0.33
TTTTATTTTTCTAGTAGTACTTCTTTTTATAATATA [XGTACX_site1181]	8.61 ± 0.6
AGTTTACACCTTGTGAGTACATACATACATATATAT [XGTACX_site8793]	9.17 ± 0.48
TTAACATTTTAAAAATGTACATTTATATACATAAAT [XGTACX_site922]	8.46 ± 0.41
AGAAAAATTCTAAGAACATGCAAAAAAATAAAAAAA [TGCATGCA_site293]	8.71 ± 0.61
TCTAATGTAATGCATACACACAACTATCCATCAAAA [CACACA_site534]	8.97 ± 0.3
AAAAAATAAATAAATATACACACCATATATATATTT [CACACA_site2854]	8.89 ± 0.35
ATATATATATATATATATATATATATATTTATATAT [GTGCAC_negctrl_site180]	9.39 ± 0.042
CTTTGTAGTTGGTCCACACACATATATGGAAGAATA [CACACA_site1280]	9.03 ± 0.44
TAATAATAGAGACACACACACATTTTTAATAATACA [CACACA_site6691]	9.59 ± 0.25
CACACCATATAATATATATATATGTATATATTTATA [CACACA_negctrl_site397]	8.76 ± 0.42
TTTTTTTTTTTTTTGTCACACACCTTCATAAGAAAA [CACACA_site1166]	8.65 ± 0.4
ACACAAAAATAAAAATGTACAAATTAAAAAAAATGA [XGTACX_site2083]	9.12 ± 0.54

Sequence	gcPBM binding intensity (ln)
TAAAAGGAACAAAATTGTACTTAAAAGACAAAGTTA [XGTACX_site7661]	8.63 ± 0.52
ATATATATTAATAGTTGTACTATTATAATATTACAA [XGTACX_site1213]	8.47 ± 0.34
ATCCTGAACAGAATATGTATAAACAGAAGGAAACAA [CACACA_negctrl_site1805]	8.98 ± 0.49
TTTGTTCTATGGAGTTTAAAATGTAATATATATTAA [GTGCAC_negctrl_site151]	8.22 ± 0.45
TATAAGCAAAGACACACACACATATAAATATAAATA [CACACA_site7740]	9.81 ± 0.35
TATAAAATATATATCTGTACGTATTTTATTTTTTAT [XGTACX_site6257]	8.7 ± 0.44
TACAAAATATTTTACACACACATATAAATACCTATA [CACACA_site7272]	9.35 ± 0.22
TATATATATATATGAGTGCATATGTGTAATATAAAA	9.22 ± 0.18
TTATGTTCTTAATGCACACTTATAAGTATCTTATAA [CACACA_site1394]	8.81 ± 0.47
TATATAATTATTTGATGTACACTACAATGTATTTGT [XGTACX_site7991]	8.99 ± 0.45
AATACAATATAAAGGTGTACATATATATATATATAT [XGTACX_site68]	9.87 ± 0.2
ATGTAGATAGATAGGGTGCTAAAAATAAGATTTATA [GTGCAC_site9602]	8.74 ± 0.68
AAAAAAAAAAAAAAAACACACACAACACCCATACCT [CACACA_site9208]	9.92 ± 0.14
ACATGATAAATAGTCACACATAAATATAATATATAT [CACACA_site5207]	8.95 ± 0.37
ATTATGGATACATAAACACACATATATATAAAAAAA [CACACA_site4303]	9.04 ± 0.43
ATAATACACAAGCACACACACACACGGATATTTATA [CACACA_site6714]	10.4 ± 0.23
ATAATTATATTTTATTCACACATCGTTATATAGTAA [CACACA_site4743]	8.74 ± 0.42
AATTATTCATAAAATGCATGTACATGGTTTAATATT [TGCATGCA_site87]	8.91 ± 0.53
TCGTAAACTTTATGCACACACATATACATATTTCAT [CACACA_site739]	9.53 ± 0.4
ATACATGTTTTATGTGCACACAAAGTTGTTATGAGG [CACACA_site4032]	9.87 ± 0.31

Reference: the supplement of paper PMC11417369
